According to PubChem BioAssay AID624417 (National Center for Advancing Translational Sciences (NCATS), 2012):
Out of some 410,000 compounds screened, about 6,400 (1.6%) were called active. The shares of active, inactive and inconclusive entries below differ from those in the screen. Calls come from the whole dose curve; as a rule, active = well fitted inhibition curve with a large enough effect; inconclusive = small, poorly fitted or top-dose-only effect; inactive = no such curve, though single readings can be large or run the other way. Where the call is inconclusive, the potency comes from a doubtful curve fit.

target: Glucagon-like peptide 1 receptor (Homo sapiens) (UniProt P43220); assay: qHTS of GLP-1 Receptor Inverse Agonists (Inhibition Mode); conditions: HEK293 GLP-1R CRE-luciferase, luminescence, 24 h, GLP-1R form is constitutively active; activity change, negative = inhibition: at 38.3 µM (top of the series) unless noted; note: nearly all actives have a fitted effect of over 55% in size
UniProt P43220, sequence (P43220 whole entry, looked up): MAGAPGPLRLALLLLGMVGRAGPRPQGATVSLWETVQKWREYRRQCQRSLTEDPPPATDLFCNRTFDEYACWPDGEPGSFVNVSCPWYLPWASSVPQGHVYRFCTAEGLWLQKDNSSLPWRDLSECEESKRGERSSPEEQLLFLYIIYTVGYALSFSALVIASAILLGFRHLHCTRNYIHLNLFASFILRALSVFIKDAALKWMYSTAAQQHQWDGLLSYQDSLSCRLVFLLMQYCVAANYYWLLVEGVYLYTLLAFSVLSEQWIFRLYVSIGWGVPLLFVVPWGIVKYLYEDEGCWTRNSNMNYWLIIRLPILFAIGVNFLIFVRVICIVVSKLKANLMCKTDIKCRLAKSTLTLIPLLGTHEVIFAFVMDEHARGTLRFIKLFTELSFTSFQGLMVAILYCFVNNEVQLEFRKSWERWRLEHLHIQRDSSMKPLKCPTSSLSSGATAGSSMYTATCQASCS
Outline: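 GLP-1R inverse agonism mode: basal reporter luminescence in engineered HEK293 cells measured after one day of compound exposure at 37 deg C, with a 12 min room-temperature detection step.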
% is set by controls: 0 for no effect and ±100 for the full control effect; potency is the fitted concentration of half-maximal effect; tags give direction and shape of the fitted curve.

Activity change, negative = inhibition, inactive:
CC(=O)N1c2ccccc2CC1C(=O)N1CCN(c2cccc(Cl)c2)CC1 (stereo not drawn) -6.51%
COc1cccc(-n2cc(C(=O)Oc3cccc(C(F)(F)F)c3)c3ccccc3c2=O)c1 -7.05%
Cc1cc(N)ccc1N1CCCC1 0%
COc1ccc(OCC(=O)N2CCN(C(=O)c3ccco3)CC2)cc1 0.271%
COc1ccccc1-c1nnc2n(CCc3ccccc3)c(=O)c3ccccc3n12 5.68%
COCc1cc(/C=N\NC(=O)Cc2ccc(Cl)cc2)ccc1OC 21.5%
CCc1ccc(C2CC(c3ccc(Cl)cc3)n3nc(N)nc3N2)cc1 (stereo not drawn) -17.5%
O=S(=O)(NCCc1csc2nc(-c3ccc(Cl)cc3)nn12)c1ccc(Oc2ccccc2)cc1 17.1%
O=C(Nc1ccc(Cl)cc1)OCc1ccccn1 -19.6%
COc1cccc(-c2cc(C(=O)NCc3ccco3)no2)c1 8.81%
S=C(NCCN1CCOCC1)Nc1ccc(Cl)cc1Cl 31%
COc1ccccc1N1CCN(C(=O)c2cnn(-c3ccc(C)c(C)c3)c2C2CCN(C(=O)OC(C)(C)C)CC2)CC1 1.91%
CC(=O)Nc1cc(-c2cccc(NS(C)(=O)=O)c2)cn2c(-c3cccc(C(C)=O)c3)cnc12 -26.7%

Activity change, negative = inhibition, inconclusive:
O=C(CCN1CCN(Cc2ccccc2)CC1)Nc1cccc(Br)c1 -81.8% [inhibitor]

Potency, inconclusive:
CC1(C)CCSC(/C=C/c2ccccc2)=N1 6.31 µM [inhibitor, full curve, poor fit]
Cc1ccc(O)c(NC(=O)c2noc3c2CCCCC3)c1 28.2 µM [inhibitor, single point]
COc1ccc(C(=O)NC2CCN(C(=S)Nc3ccc(C)c(C)c3)CC2)cc1 28.2 µM [inhibitor, single point]
O=C(/C=C/c1ccco1)NC(=S)Nc1cccc(-c2nc3ccccc3o2)c1 0.794 µM [inhibitor, full curve, poor fit]
O=C(NC(c1ccc(Cl)cc1)c1cnccn1)C1CCN(CCOc2ccc(F)cc2)CC1 (stereo not drawn) 28.2 µM [inhibitor, single point]
O=S(=O)(c1ccc(-c2csc(=Nc3ccccc3)n2CCCN2CCOCC2)cc1)N1CCOCC1 22.4 µM [inhibitor, partial curve, poor fit]
O=C(c1cn[nH]c1)N1CCc2c([nH]c3ccccc23)C1c1c(F)cccc1Cl (stereo not drawn) 11.2 µM [inhibitor, partial curve, poor fit]
N#Cc1nc(COc2ccccc2)oc1N1CCC(Cc2ccccc2)CC1 15.8 µM [inhibitor, single point]
CC(C)=CCN1CCN(C/C(Cl)=C/c2ccccc2)CC1CCO (stereo not drawn) 14.1 µM [inhibitor, single point]
Cc1ccc(S(=O)(=O)C2(C(=O)Nc3ccc(Br)cc3)CC2)cc1 28.2 µM [inhibitor, single point]
Cc1ccc2c(c1)c1c(n2CC(O)Cn2c(C)nc3ccccc32)CCCC1 (stereo not drawn) 10 µM [inhibitor, partial curve, poor fit]
CCCc1nc(SCC(=O)c2ccccc2)c2c(=O)n(C)c(=O)n(C)c2n1 2.24 µM [inhibitor, partial curve, poor fit]
CN(C)S(=O)(=O)c1ccc2c(c1)N(CC(=O)NCc1cccc(Br)c1)C(=O)CS2 31.6 µM [inhibitor, partial curve, poor fit]
CN(C)CCCNc1ncnc2c1cnn2-c1ccccc1 31.6 µM [inhibitor, single point]
C=CCNC(=O)/C(C#N)=C/c1c(C)nn(-c2ccc(Cl)cc2)c1Cl 14.1 µM [inhibitor, single point]
Cc1ccc(S(=O)(=O)N2CCC(C(=O)OC(C)C(=O)NC3CCCCC3C)CC2)cc1C (stereo not drawn) 10 µM [inhibitor, partial curve, poor fit]
COc1ccc(C(=O)C2CCCN(Cc3ccc(C#CCCO)cc3)C2)cc1F (stereo not drawn) 1.12 µM [inhibitor, partial curve, poor fit]
Cc1ccc(CS(=O)(=O)c2cn(CC(=O)Nc3ccon3)c3ccccc23)cc1 31.6 µM [inhibitor, single point]
Nc1ccncc1N 22.4 µM [inhibitor, partial curve, poor fit]
COc1ccc(C2C(Oc3ccccc3)C(=O)N2c2cc(C)ccc2C)cc1OC (stereo not drawn) 11.2 µM [inhibitor, partial curve, poor fit]
COc1ccc(Cl)cc1S(=O)(=O)N1CCN(Cc2cccc(F)c2)CC1 28.2 µM [inhibitor, single point]
O=C(c1ccco1)N1CCN(c2c(-c3ccccc3)c3cc(Cl)ccc3[nH]c2=O)CC1 10 µM [inhibitor, partial curve, poor fit]
CCCOc1ccc(C(=O)N(Cc2cccs2)c2ccc(C)cc2)cc1 28.2 µM [inhibitor, single point]
CCOC(=O)c1ccc(NC(=O)C2CCN(C(=O)N3CC(C)Oc4ccc(C)cc43)CC2)cc1 (stereo not drawn) 6.31 µM [inhibitor, single point]
COc1ccc(C2CC(C)(c3ccc(OC)cc3)Nc3ccccc3N2)cc1 (stereo not drawn) 28.2 µM [inhibitor, single point]
C=CCn1c(=O)/c(=C/c2ccc(Cl)cc2)s/c1=C(\C#N)c1nnc2n1CCCCC2 2.82 µM [inhibitor, full curve, poor fit]
CCOc1ccc(S(=O)(=O)N(CC(=O)NC2CCCCC2C)Cc2ccco2)cc1 (stereo not drawn) 20 µM [inhibitor, single point]
C=C(C)c1cccc(C(C)(C)NC(=O)Nc2ccc(C)cn2)c1 28.2 µM [inhibitor, single point]
C/C(=N\NC(=S)NCCc1ccccc1)c1cccs1 8.91 µM [inhibitor, partial curve, poor fit]
CN(C)CCCN(Cc1ccc2c(c1)OCO2)C(=O)NC1CCCCC1 7.08 µM [inhibitor, partial curve, poor fit]
Cn1c(=O)n(Cc2ccc(F)cc2)c(=O)c2c1nc1n2CCCN1Cc1ccccc1 2.51 µM [inhibitor, partial curve, poor fit]
CC(=O)Nc1ccc(-c2ccnc3c2CC(C(=O)Nc2ccc4c(c2)OCO4)O3)cc1 (stereo not drawn) 5.62 µM [inhibitor, partial curve, poor fit]
Cc1cc(C)nc(OC(C(=O)O)C(OCCc2ccccc2)(c2ccccc2)c2ccccc2)n1 (stereo not drawn) 31.6 µM [inhibitor, partial curve, poor fit]
Cc1ccc(C2C3=C(CC(C)(C)CC3=O)Nc3onc(C)c32)cc1 (stereo not drawn) 31.6 µM [inhibitor, single point]
Cc1cccc(C(=O)Nc2ccc(-c3nc4cc(C(C)C)ccc4o3)cc2)c1 3.98 µM [inhibitor, full curve]
Cc1ccc(N2CCN(C(=O)NCc3noc4ccccc34)CC2C)cc1 (stereo not drawn) 11.2 µM [inhibitor, single point]
C=CC[n+]1c(/C=C/c2ccc(OC(C)=O)c(OC)c2)ccc2ccccc21 8.91 µM [inhibitor, partial curve, poor fit]
O=C(Nc1c(C(=O)NCc2ccco2)cnn1-c1ccccc1)c1ccc(F)cc1 31.6 µM [inhibitor, single point]
CSc1ccc(NC(=O)C2(C)CCN2C(=O)C2(c3ccccc3)CC2)cc1 (stereo not drawn) 8.91 µM [inhibitor, partial curve, poor fit]
Fc1ccccc1Sc1ccccc1CNC1=NCCN1 12.6 µM [inhibitor, partial curve, poor fit]
COc1ccccc1-c1cccc([C@@H]2C[C@H]3[C@H](CON3C)CN2Cc2cc(Cl)cc(Cl)c2)c1 14.1 µM [inhibitor, single point]
CCOc1ccc(N=C(NN)c2ccc3ccccc3n2)cc1 5.62 µM [inhibitor, full curve, poor fit]
CCc1cccc(OCCCCNCCO)c1 28.2 µM [inhibitor, single point]
C(=N\N1CCN(c2ccccn2)CC1)/c1cccc2ccccc12 28.2 µM [inhibitor, single point]
CCOc1ccccc1NC(=O)C(=O)NCC1CCCN1CC (stereo not drawn) 20 µM [inhibitor, single point]
COCCCn1c(Cc2csc(Nc3cccc(Cl)c3)n2)nnc1SCC(=O)OC1CCCCC1 35.5 µM [inhibitor, partial curve, poor fit]
CC(C)c1ccc(NC2CCCN(C(=O)c3cc(C(C)C)[nH]n3)C2)cc1 (stereo not drawn) 14.1 µM [inhibitor, single point]
CC(CNC(=O)Cn1ccc2cc(S(=O)(=O)N3CCCC3)ccc21)c1ccccc1 (stereo not drawn) 11.2 µM [inhibitor, single point]
CCn1ncc(Cl)c1C(=O)NC(=S)Nc1ccccc1Br 2.51 µM [inhibitor, partial curve, poor fit]
